Among the data in publication PMC10726135 are binding signal (log2 normalized intensity) values, retold here.

The list shows a part of the results. At the low end of the ranking the order means little. Measured with an extract: partners may take part in the binding.

This assay has as its target T1, HNF4alpha8 (COS-7 nuclear extract) (UniProt P41235-5).
T1 sequence: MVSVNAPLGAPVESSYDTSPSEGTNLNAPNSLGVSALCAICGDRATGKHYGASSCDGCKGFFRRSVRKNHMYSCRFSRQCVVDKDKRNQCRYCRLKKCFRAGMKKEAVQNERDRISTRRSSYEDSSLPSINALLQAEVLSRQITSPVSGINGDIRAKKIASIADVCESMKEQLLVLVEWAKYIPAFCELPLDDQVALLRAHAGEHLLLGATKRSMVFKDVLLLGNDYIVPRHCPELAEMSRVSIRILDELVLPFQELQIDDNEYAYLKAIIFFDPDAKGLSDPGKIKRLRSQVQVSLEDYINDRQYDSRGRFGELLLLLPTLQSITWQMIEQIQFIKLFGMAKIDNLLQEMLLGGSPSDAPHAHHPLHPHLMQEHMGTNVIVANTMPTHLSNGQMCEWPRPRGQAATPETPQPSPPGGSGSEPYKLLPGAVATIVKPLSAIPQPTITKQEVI
The experiment in a line: protein-binding microarray. The note with it: COS-7 nuclear extract on double-stranded Agilent 4x180k PBM; binding buffer, salt, pH and temperature not given; high values mean tight binding; double strand, one strand shown; sequences stand for … in …GCCTAGGGAGATTAGAGTATCGGTCGA
As to GATGGGGGTGGGAGGCTGGGAGGAGGGTAA, the binding signal (log2 normalized intensity) is -1.39. For TAGCATGAATTTGGTACCTCCCCCCACACC, the binding signal (log2 normalized intensity) is 5.55. In the case of GAAAAGGAAATATCTTCGTATAGAAACAAG, the binding signal (log2 normalized intensity) was -0.949.

In the case of GCAAACCTGCCCTTTGCTCCAGAGGAAGAT, the binding signal (log2 normalized intensity) stood at 3.81. Regarding ACCCATATCTGACTGATGCTAAAGTCTACA, the binding signal (log2 normalized intensity) was found to be 1.72. CCACCTGGAATGTGCTCCCGACTGCTCCAC: the binding signal (log2 normalized intensity) turned out to be 0.00529. With ACTAAGATTTGACTGGAATGTCAAAGGGAC the figure was 1; with CAGAAACCTCATTGTGATGTGTGCGTTCAT, 1.2. Regarding AACTCCAAGATTAGTGGGAAAGCTATTGCT, the binding signal (log2 normalized intensity) was -1.32. Next, CGAGCATGGCCGCTCCGCGAGGTGAGCCAT: 1.32; GATCAATGAATACATGAGTGATCCTGAAAA: 1.01.

For TCAGAAATGCATGAGTGACCTTTATCCAGT, the binding signal (log2 normalized intensity) is 5.8.

As for CCTCATTTTTCCTGGATGCCAGGCAAGAGC, the binding signal (log2 normalized intensity) was 0.294. Next, GGAGGAGACTTTGACCTCTGCTAGGTTTGG: 5.5; GTGCCCTCATAAGAGACTTTGCCCTTTTTT: 6.35.

In the case of TGGGAATGGAGAGAGAGAGAATAGCTCAGG, the binding signal (log2 normalized intensity) is -1.4.

As to TTACAAGGAGATATGCACTTGCCCTTTGGT, the binding signal (log2 normalized intensity) came out at 4.59. TGGCAAAGCTATTCACTTTTTGGCCTTTGG: the binding signal (log2 normalized intensity) amounted to 3.87. With AAGATGACCAGCGTGTGGCGCCATTTCAGG the figure was -1.38; with CTTGAGGACAGGCCAAATCCAGTAAGGCAC, -1.24; with GGAGAGGTGGAGAAAGGCAGAAGGTTCCAG, -1.11. Next, TCAGGGCCACGGGAAAACCTGACTGCGCTC: -1.3; TGCATGCAAAAAGGCTGACCTTTGACTCTC: 8.15; TGGATACAGGGTAGGGCCAACCAACCCAAC: -1.38. Next, TCAAGTGATCGAAGGTCAACTTATCAGCAT: 3.89; GGGACAAGCACATTAGGAGGAAAAAGAATG: -1.33.

With TGAAGGTAGGACAGGGTGATCAGAGATCTA, the binding signal (log2 normalized intensity) was -1.3.

For the sequence ATAAATAAAGCCCTGGGGTAATAAAAGTGT, the binding signal (log2 normalized intensity) is -0.134.

For the sequence GGCCGCTCTCCCTCCAGGCCCCAGCCACGC, the binding signal (log2 normalized intensity) was 2.23.

Turning to TCAGGAGAGCATCTGAGTGTCAAAAACAAT, the binding signal (log2 normalized intensity) was -0.366.

Take GCCCTTAAAGGCTTTTGCAAGAAAACCAGC: the binding signal (log2 normalized intensity) is -1.07. With GGTGGGCTGCTCCCAGTGCCCTTTGAACTC the figure was 8.91; with AGTCCAAGTTCCACATCAAGCACATTCCAG, -1.23; with TTATGGCCACTGTGTGTGTGTGTGTGTCTG, 2.74. In the case of CCCCACCCCCACTGCCTGACCCCAAGTAAT, the binding signal (log2 normalized intensity) was determined as 7.09. With TGCTTCAGCAAAACCAGTTTGTCTGATCTT the figure was -0.615; with CAAGGTCCCATGGCTAATCTGTGACTGAGC, -1.1. Next, GTGATCAGAGATCTAGGTGAGGGATGAGGA: -1.33; CAAAGGACAATAATGAATAAGCACGTTAGA: -0.992. Next, AAGGGGAAATATGTAGGTTTGGGGAACTTT: 1.7. In the case of GTCAAAAATTTGTGTGTAACATTTGACTTC, the binding signal (log2 normalized intensity) came to 1.97. With GCGGCTGCAAATTCTGCATTTTTCTTTCCT the figure was -1.39; with CCCCTTGGCTACATGTTTGTCTTTCAAACA, 1.34; with TGGGCCCCACAGTGCATCTGATAAGGTTGT, 0.409.

GACAAAGGTCATTCATGTGCAGGTTGGAAT: the binding signal (log2 normalized intensity) worked out at 3.11. In the case of TGTGAATGAAAGAGACTAGTATGTAAATAA, the binding signal (log2 normalized intensity) is -0.396. With CTTGGAGGCGGCGGCTCCGGGAGCTGGCGG the figure was -1.31; with TTGATGGTTAAAGTCCAATCTTCTGGCCCC, 5.12; with CCAGGTCGGGCCGGAGAGGCTTATTCCGTA, -1.37. Next, TATGGACCTTGTCCCTGGATTGTGTTGCAC: 3.35. For the sequence GGAGGACTTTGGAATGGCAGTGCTTGTCCA, the binding signal (log2 normalized intensity) is 2.52. With TCTGGTGCCAAGGAGCCTCTGCAACCTTTG the figure was 3.43.

In the case of GGGACTGTGCAGACAAGATATGAGGCCAGT, the binding signal (log2 normalized intensity) was -0.346. Take CCCAGATGGAGTGCTCTGAACCGTGTACCT: the binding signal (log2 normalized intensity) turned out to be 2.23. Next, TCCCATCTTGCAGCTGACCCTGGCCGGAAA: 2.05; CTGAGAAGATGAAAGACGAAAGGGACTTTG: 2.82. Next, ACAGAAGGCAGAGATTTGAGTCAACCCAAC: -1.15. As for GCAGGCTTAGCTGGGCTAGCACCTGTGGAT, the binding signal (log2 normalized intensity) is -1.3. Take TACTTTGCTCTCAGCACACTCTGGTACCAT: the binding signal (log2 normalized intensity) was -0.259.

With TCTCACATCTGATAGCTAAACCAGATACGT, the binding signal (log2 normalized intensity) is -0.926. With GGTGGTGACAAAGACAGATTAGATCTGCGT the figure was -1.31; with CAGCGACTGAGCTGAGGTTAGAATCCTTAT, -1.27; with TAGAAGTATGTCTGGGATTTGAAGGAGCAG, -1.3. With CTCTCGCCGAGGCCCCAGGAGACCCCGCGA, the binding signal (log2 normalized intensity) is 2.25. As to CACATTCCAGCTCTGTGACTTTACCTGAAA, the binding signal (log2 normalized intensity) is -0.734. In the case of TCTCTCAAGGTTCCCAGCTAAATAAATAAC, the binding signal (log2 normalized intensity) was -1.1.

For the sequence TTGCGAGGTTCCATGGTGTAATGGTTAGCA, the binding signal (log2 normalized intensity) was found to be 1.64.

Take GGATCAAGTGGCAATAAACTCCGTTATCAC: the binding signal (log2 normalized intensity) was -0.696. Turning to GAGTCCAGAGGTCAAGGCTGCAGCGAGCCA, the binding signal (log2 normalized intensity) was 3.14. Next, TGAAAGAGCTCAAATGACAGAACAGTCCAG: -0.801; AGAACCCATGCTCTTTGGCCTGGCATTTGA: 1.44.

Regarding ACAATGATGAAAGGAGCTTGGGAAGACAGA, the binding signal (log2 normalized intensity) was -1.33. As to GGATTATCACTGAATCGAGGCTATTCTGTA, the binding signal (log2 normalized intensity) is -1.03.

Turning to CAAAAAGTTGGTTGGAGCTATGGGCAGAAA, the binding signal (log2 normalized intensity) was 0.196. Next, AGCACCAGGGATAGCGCCCACACTGCCCAT: -1.26. For CCCCCACACCATTAGAGAACATGTACTTTG, the binding signal (log2 normalized intensity) turned out to be 3.66. Next, ATCTGCCAACAGAGTCATCACAATAGGGAA: -1.32. Regarding TTACCATGCCAGAACTTCTCATCTTATCTA, the binding signal (log2 normalized intensity) is -1.33.

In the case of ACAGGACAAATCAAGTGAAATGCCAACGGC, the binding signal (log2 normalized intensity) is -1.26. Next, TCTGCTTGCCATTAATGAAAACTGCACTTC: 2.38. As to AGCGAGTTATCTGCATTCCAGCTCAATCAA, the binding signal (log2 normalized intensity) was -1.09. Take TAAAGGCTTTTGCAAGAAAACCAGCATGGT: the binding signal (log2 normalized intensity) is -1.34.

Turning to CTGGGTTCAGTTACGGGGTGGTTTATCTGC, the binding signal (log2 normalized intensity) was determined as 0.702. Regarding GATAAAAGTGAGCAATGCTGAGTATGCAGC, the binding signal (log2 normalized intensity) was -1.09.

As to AGGGCCTCTCTTCTTGTAATCCCATTTCCC, the binding signal (log2 normalized intensity) amounted to 1.09.

As for CTAGGAGAGTGGACTCACAGCAGGAGGGCT, the binding signal (log2 normalized intensity) was -1.48. With AGGTACAAACATACTTAGGATTTTTGTGCC the figure was 0.618. With ACAATCTGAAGTCCCCTGTGCTTTGGCCAA the figure was 1.38.

Regarding AAGGCAGATTTCTGTCTTTGATCTGCTATC, the binding signal (log2 normalized intensity) stood at 0.517. Take TATGCTTTTATTTAACTTCTGGGGGCAAGG: the binding signal (log2 normalized intensity) amounted to 2. On to TGCTTATCAGTGTACCTGTCCCTACTCAAT, for which the binding signal (log2 normalized intensity) is 0.884.

Take CAGGAGTGGGAGAAAGCTTTGGACTTTGGG: the binding signal (log2 normalized intensity) turned out to be 5.45. With ATGTCCTTTGGAGTGCTTTCATCTTTGCGG the figure was 0.566.
